Reference: PubChem BioAssay (NCATS)
This list was built around the results that the source calls inconclusive (neither active nor inactive); the mix of calls is not that of the screen. Where the call is inconclusive, the potency comes from a doubtful curve fit. The source made the active and inactive calls. Calls come from the whole dose curve; as a rule, active = well fitted activation curve with a large enough effect in the main read-out, with a control signal flat (not every such curve was filed as active); inconclusive = small, poorly fitted or top-dose-only effect, or effect the other way, or a change in a side signal; inactive = flat fitted curve, though single readings scatter.

target: 3',5'-cyclic-AMP phosphodiesterase 4B (Homo sapiens) (UniProt Q07343); assay: qHTS Assay for Inhibitors of PDE-IV (AID 607); settings: HEK293 ACTOne CNG channel cells, membrane potential fluorescence; activation (PDE inhibition): at 22.9 µM (top of the series); for activation (PDE inhibition): % of control where 0% means no effect
UniProt Q07343, sequence (Q07343 whole entry, looked up): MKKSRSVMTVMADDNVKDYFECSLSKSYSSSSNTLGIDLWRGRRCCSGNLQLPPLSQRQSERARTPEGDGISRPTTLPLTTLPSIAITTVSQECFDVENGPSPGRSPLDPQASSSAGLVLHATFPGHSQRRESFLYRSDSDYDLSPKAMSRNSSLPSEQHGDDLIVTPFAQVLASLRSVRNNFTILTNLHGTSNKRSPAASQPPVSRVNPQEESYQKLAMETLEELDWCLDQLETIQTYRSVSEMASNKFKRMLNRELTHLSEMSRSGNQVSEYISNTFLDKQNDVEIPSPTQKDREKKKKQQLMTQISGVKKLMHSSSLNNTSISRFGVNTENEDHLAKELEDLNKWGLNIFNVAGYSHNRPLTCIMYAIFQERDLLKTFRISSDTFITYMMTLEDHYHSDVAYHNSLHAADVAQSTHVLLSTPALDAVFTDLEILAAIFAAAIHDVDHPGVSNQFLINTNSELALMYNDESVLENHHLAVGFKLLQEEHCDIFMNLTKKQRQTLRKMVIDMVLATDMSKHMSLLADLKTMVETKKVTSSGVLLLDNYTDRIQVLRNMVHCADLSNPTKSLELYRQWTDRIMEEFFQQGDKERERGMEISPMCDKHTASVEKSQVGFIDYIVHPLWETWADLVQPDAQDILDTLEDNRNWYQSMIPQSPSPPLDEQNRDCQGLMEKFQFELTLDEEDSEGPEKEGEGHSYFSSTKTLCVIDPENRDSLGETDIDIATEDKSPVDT
Summary of the method: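 ACTOne HEK293 cells carry a modified cAMP-gated CNG channel and express endogenous PDE4; plated 1000 cells/well, compounds up to 22.9 uM final. Membrane-potential dye fluorescence (ex 535/em 590) was read; parental cells received 10 uM forskolin + 100 uM RO 20-1724.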
Potency is the fitted concentration of half-maximal effect; tags give direction and shape of the fitted curve.

For `Cc1ccc(S(=O)(=O)N[C@H](CO)C(=O)O)cc1`, which “activation (PDE inhibition)” value is on record?
The value was inactive: -2.17%.

With `O=c1c(-c2ccccc2)nc2cncnc2n1Cc1ccc(F)cc1` as the compound, how does the Potency read?
The Potency was inconclusive: 15.8 µM [activator, single point].

For `Cc1ccc(CNC(=O)[C@H](C)[C@H]2C[C@]2(C)[C@H](NC(=O)OCc2ccccc2)c2ccccc2)o1`, which “activation (PDE inhibition)” value is on record?
The value was inactive: 2.1%.

For `C=C1CC[C@@H](O)C/C1=C/C=C1\CCC[C@]2(C)[C@@H]1CC[C@H]2[C@@H](C)/C=C\[C@@H](C)C(C)C`, which Potency is on record?
Its Potency is inconclusive: 15.1 µM [activator, partial curve].

With `C=C1C(=O)C=C2CN(C(=O)c3ccccc3)[C@@](Cc3ccc(OC)cc3)(C(=O)OC)[C@@H]12` as the compound, how does the Potency read?
Its Potency is active: 1.58 µM.

For `CCC/C=C(\CCC)C(NC(=O)Oc1ccc(F)cc1)c1ccc(C(=O)OC)cc1` (stereo not drawn), which Potency is on record?
Its Potency is inconclusive: 6.31 µM [activator, partial curve].

For `CCCC[C@@H]1C[C@H]1C(NC(=O)c1ccc(C(F)(F)F)cc1)c1ccc(C(=O)OC)cc1` (stereo partly drawn), which Potency is on record?
The Potency was inconclusive: 1 µM [rising, full curve].

Which Potency does the source give for `COCCn1c(C(=O)N2CCCC2)cc2c1C[C@H]1CN(C(=O)c3ccccc3)[C@@](Cc3ccc(OC)cc3)(C(=O)OC)[C@@H]21` here?
Its Potency is inconclusive: 2 µM [activator, full curve].

Which “activation (PDE inhibition)” value does the source give for `O=C(O)C1(C(=O)O)CCN(S(=O)(=O)c2ccccc2)CC1` here?
The value was inactive: -3.22%.

For `COC(=O)[C@@H]1C[C@H]1[C@@H](NS(=O)(=O)c1ccc2ccccc2c1)c1ccccc1`, which Potency is on record?
The Potency was inconclusive: 10 µM [activator, single point].

How did the Potency turn out when `O=C(c1ccncc1)N1CCC[C@@]2(CCN(C(c3ccccc3)c3ccccc3)C2)C1` was run?
Its Potency is inconclusive: 10 µM [rising, partial curve].

For `NCCNC[C@H](O)CO`, which “activation (PDE inhibition)” value is on record?
Its value is inactive: -9.28%.

Which Potency does the source give for `COC(=O)[C@H]1C[C@@H]1[C@H](NS(=O)(=O)c1ccc(-c2ccccc2)cc1)c1ccccc1` here?
The Potency was inconclusive: 12.6 µM [rising, single point].

For `CN(CCc1ccc(Cl)c(Cl)c1)CCN1CCCCCC1`, which Potency is on record?
The Potency was inconclusive: 15.1 µM [activator, partial curve].

Which “activation (PDE inhibition)” value does the source give for `O=[N+]([O-])c1nccn1C[C@H](O)CN1CCCCC1` here?
Its value is inactive: 4.2%.

For `CCNc1ncc2nc(-c3cn(C)c4ccccc34)c(=O)n(CCC#N)c2n1`, which Potency is on record?
The Potency was inconclusive: 5.01 µM [activator, partial curve].

With `NCCC[C@@H](CC(=O)N[C@@H]1CCCC[C@H]1C(=O)N[C@H](CC(=O)N[C@@H](CCC(=O)O)CC(=O)O)Cc1ccccc1)NC(=O)C[C@H](CO)NC(=O)[C@@H]1CNCC[C@H]1N` as the compound, how does the Potency read?
Its Potency is inconclusive: 7.94 µM [activator, partial curve].

With `CCNc1ncc2nc(-c3cn(C)c4ccccc34)c(=O)n(Cc3cccs3)c2n1` as the compound, how does the “activation (PDE inhibition)” value read?
The value was inactive: 12.1%.

Which “activation (PDE inhibition)” value does the source give for `CN(C)CCN1C(=O)CC[C@]2(C)C1=CC[C@@H]1[C@@H]2CC[C@]2(C)[C@H]1CC[C@]2(C)O` here?
Its value is inactive: 3.38%.

How did the Potency turn out when `COC(=O)C1(Cc2ccccc2)C=C2C(=C(c3ccccc3)C(=O)C2C)CN1` (stereo not drawn) was run?
Its Potency is inconclusive: 10 µM [activator, single point].

For `COC(=O)c1ccc(C23CC2(C(NP(=O)(c2ccccc2)c2ccccc2)c2ccccc2)C3)cc1` (stereo not drawn), which Potency is on record?
Its Potency is inconclusive: 5.01 µM [activator, partial curve].

Which “activation (PDE inhibition)” value does the source give for `COC(=O)[C@@]1(Cc2ccc(OC)cc2)[C@H]2c3cc(C(=O)N(C)C)n(Cc4ccccn4)c3C[C@H]2CN1C(=O)c1ccccc1` here?
Its value is inactive: -6.15%.

Which “activation (PDE inhibition)” value does the source give for `CC(C)[C@@H](CC(=O)N[C@@H]1CCCC[C@H]1C(=O)N[C@H](CC(=O)N[C@@H](CCC(=O)O)CC(=O)O)Cc1ccccc1)NC(=O)C[C@H](CO)NC(=O)[C@@H]1CCCC[C@H]1N` here?
Its value is inactive: -6.66%.

For `COc1cc(N=C(N)N=C(N)N)c2ncccc2c1`, which “activation (PDE inhibition)” value is on record?
The value was inactive: -0.672%.

With `Cn1cc(-c2nc3cncnc3n(Cc3ccc(F)cc3)c2=O)c2ccccc21` as the compound, how does the Potency read?
The Potency was inconclusive: 1.26 µM [activator, full curve].

With `CN1CCN(CCc2ccc(Cl)c(Cl)c2)CC1` as the compound, how does the “activation (PDE inhibition)” value read?
Its value is inactive: -40.6%.

`COC(=O)[C@@]1(Cc2ccc(F)cc2)[C@H]2c3cc(C(=O)N(C)C)n(Cc4ccc(C)c(F)c4F)c3C[C@H]2CN1C(=O)c1ccccc1` was tested. Which Potency did it give?
The Potency was inconclusive: 1 µM [activator, partial curve].

How did the “activation (PDE inhibition)” value turn out when `COc1ccccc1C[C@@H](Cc1nc2ccccc2[nH]1)c1nc2ccccc2[nH]1` was run?
Its value is inactive: 28.8%.
